{
  "source": "the RNAGym collection of RNA variant scans (doi:10.1073/pnas.2313332121)",
  "parents": {"B1": {"name": "TPR 5TU (parent)", "chain": "GGAUCUUCUCGAUCUAACAAAAAAGACAAAUCUGCCACAAAGCUUGAGAGCAUCUUCGGAUGCAGAGGCGGCAGCCUUCGGUGGCGCGAUAGCGCCAACGUUCUCAACUAUGACACGCAAAACGCGUGCUCCGUUGAAUGGAGUUUAUCAUG"}},
  "note": "This sample is rich in variants without activity.",
  "data": [
    {"variants_of": "B1", "test": "polymerase ribozyme fitness, log enrichment relative to wild type (log ratio); higher = more active; in vitro selection for triplet polymerase activity", "method_in_brief": "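Mutant libraries were PCR-built and transcribed for each subunit of a heterodimeric triplet polymerase ribozyme and selected for one round in triplicate at −7 °C, frozen, before gel excision of extended constructs and streptavidin-bead capture. Input and output libraries were Illumina-sequenced, keeping genotypes with ≥10 input reads and ≥1 read per output. Fitness is a logarithmic ratio of genotype to wild-type enrichment, in base 2, using inverse-variance-weighted replicate averages.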", "values": [
      {"variant": "GGAUCUUCUCGAUCUAACGAAAAAGACAAAUCUGCCACAAAGCUUGAGAGCAUCUUCGGAUGCAGAGGCGGCAGCCUUCGGUCCCGCGAUAGCGGCAACGUGCUCAGCUAUGACACGCAAAACGCGUGCUCCGUUGAAUGGAGUUUAUCAUG", "note": "[A19G G83C G84C C95G U102G A107G]", "polymerase ribozyme fitness (log ratio)": "≤ -4.2"},
      {"variant": "GGAUCUUCUCGAUCUAACGAAAAAGACAAAUCUGCCACAAAGCUUGAGAGCAUCUUCGGAUGCAGAGGCGGCAGCCUUCGGUGGCGCGAUAGCACCAACGUUCUCAACUAUGACACGCAAAACGCGUGCUCCGUUGAAUGGAGUUUAUCAUG", "note": "[A19G G94A]", "polymerase ribozyme fitness (log ratio)": -1.06},
      {"variant": "GGAUCUUCUCGAUCUAACGAAAAAGACAAAUCUGCCACAAAGCUUGAGAGCAUCUUCGGAUGCAGAGGCGGCAGCCUUCGGUGGCGCGAUAGCGCCAACGUUCUCAACUAUGACACGCAAAACGCCUGCUCCGUUGAAUGGAGUUUAUCAUG", "note": "[A19G G126C]", "polymerase ribozyme fitness (log ratio)": 0.693},
      {"variant": "GGAUCUUCUCGAUCUAACGAAAAAGACAAAUCGGCCACAAAGCUUGAGAGCAUCUUCGGCUACAGAGGCGGCAGCCUUCGGUGGCGUGAUAGCGCCAACGUUCUCAACUAUGACACGCAAAACGCGUGCUCCGUUGAAUGGAGUUUAUCAUG", "note": "[A19G U33G A60C G62A C87U]", "polymerase ribozyme fitness (log ratio)": "≤ -4.2"},
      {"variant": "GGAUCUUCUCGAUCUAACGAAAAAGACAAAUCUGCCACAAAGCAUGAGAGCAUCAUCGGAUCCAGAGGCGGCAGCCUUCGGUGGCGCGAUAGUGCCAACGUUCUCAACUAUGACACGCAAAACGCGUGCUCCGUUGAAUGGAGUUUAUCAUG", "note": "[A19G U44A U55A G62C C93U]", "polymerase ribozyme fitness (log ratio)": "≤ -4.2"},
      {"variant": "GGAUCUUCUCGAUCUAACGAAAAAGACAAAUCUGCCACAAAGCCUGAGAGCAUCUAUGGAUGCAGAGGCGGCAGCCUUCGGUGGUGCGAUAGCGGCAACGUUCUCAACUAUGACACGCAAAACGCGUGCUCCGUUGAAUGGAGUUUAUCAUG", "note": "[A19G U44C U56A C57U C85U C95G]", "polymerase ribozyme fitness (log ratio)": "≤ -4.2"},
      {"variant": "GGAUCUUCUCGAUCUAACGAAAAAGACAAAUCUGCCACAAAGCUUGAGAGCAUCAUCGGAUGCAGAGGCGGCAGCCUUCGGUGGCGCGAUAGCGCCAACGUUCGCAACUAUGAGACGCAAAACGAGUGCUCCGUUGAAUUGAGUUUAUCAUG", "note": "[A19G U55A U104G C114G C125A G140U]", "polymerase ribozyme fitness (log ratio)": "≤ -4.2"},
      {"variant": "GGAUCUUCUCGAUCUAACGAAAAAGACAAAUCUGCCACAAAGCUUGAGAGCAUCUUCGGAUGCAGAGGCGGCAGCCUUCGGUGGCGCGAUAGCGCCAACGUUCUCAACGAUGACACGCAAAACGCGUGCUCCGUUGAACGGAGCUUACCAUG", "note": "[A19G U109G U139C U144C U148C]", "polymerase ribozyme fitness (log ratio)": -4.14},
      {"variant": "GGAUCUUCUCGAUCUAACUGAAAAGACAAAUCUGCCACAAAGCUUGAGAGCAUCUUCGGAUGCAGGGGCGGCAGCCUUCAGUGGCGAGAUAGCGCCAACGUUCUCAGCUCUGACACGCAAAACGCGUGCUCCGUUGAAUGGAGUUUAUCAUG", "note": "[A19U A20G A66G G80A C87A A107G A110C]", "polymerase ribozyme fitness (log ratio)": "≤ -4.2"},
      {"variant": "GGAUCUUCUCGAUCUAACUUAAAAGACAAAUCUGCCACAAAGCUUGAGAGCCUCAUCGGAUGCAGAGGCGGCAGCCUUCGGUGGCGCGAUUGCGCCAACGUUCUCAAUUAUGACACGCAAAACGCGUGCUCCGUUGAAUGGAGUUUAUCAUG", "note": "[A19U A20U A52C U55A A91U C108U]", "polymerase ribozyme fitness (log ratio)": "≤ -4.2"},
      {"variant": "GGAUCUUCUCGAUCUAACUUAAAAGACAAAUCUGCCACAAAGCUUGAGAGCAUCUUCGGAUGCAGAGGCGGCAGCCUUCGGUGGUGCGAUAGCGCCAACGUUCUCAACUAUGACACGCAAAACGCGUGCUCCGUUGAAUGGAGUUUAUCAUG", "note": "[A19U A20U C85U]", "polymerase ribozyme fitness (log ratio)": -2.59},
      {"variant": "GGAUCUUCUCGAUCUAACUUAAAAGACAAAUCUGCCACAAAGCUUGAGAGCAUCUUCGGAUGCAGAGGCGGCAGCCUUCGGUGGUGCGAUAGCGCCAACGUUCUCAACUAUGACACGCAAAACGCGUGCUCCGUUGAAUGGGGUUUAUCAUG", "note": "[A19U A20U C85U A142G]", "polymerase ribozyme fitness (log ratio)": -2.89},
      {"variant": "GGAUCUUCUCGAUCUAACUACAAAGACAAAUCUGGCACAAUGCUUGAGAGCCUCUUCGGAUGCAGAGGCGGCAGCCUUCGGUGGCGAGAUAGCGCCAACGUUCUCAACUAUGAUACGUAAAACGCGUGCUCCGUUGAAUGGAGUUUAUCAUG", "note": "[A19U A21C C35G A41U A52C C87A C114U C118U]", "polymerase ribozyme fitness (log ratio)": "≤ -4.2"},
      {"variant": "GGAUCUUCUCGAUCUAACUAUAAAGACAAAUCUGCCACAAAGCUUGAGAGCAUCUUCGGAUGCAGAGCCGGCAGCCUUCGGUGGCGCGAUAACGCCAACGUUCUCAACUAUGACACGCAAAACGCGUGCUCCGUUGAAUGGAGUUUAUCAUG", "note": "[A19U A21U G68C G92A]", "polymerase ribozyme fitness (log ratio)": "≤ -4.2"},
      {"variant": "GGAUCUUCUCGAUCUAACUAAACAGAAAAAUCUGCCACAAAGCUUGAGAGCAUCUUCGGAUGCAGAGGCGGCAGCCUUCGGUGGAGCGAUAGCGCCAACGUUCUCAACUAUGACACGCAAAACGCGUGCUCCGUUGAAUGGAGUUUAUCAUG", "note": "[A19U A23C C27A C85A]", "polymerase ribozyme fitness (log ratio)": "≤ -4.2"},
      {"variant": "GGAUCUUCUCGAUCUAACUAAAGAGACAAAUCUGCCACAAAGCUUGAGCGCAUCUUCGGAUGCAGGGGCGGCAGCCUUCGGUGUCGCGAUAGCGCCAACGUCCUGAACUAUGACACGCAAAACGCUUGCUCCGUUGAAUGGAGUUUAUCAUG", "note": "[A19U A23G A49C A66G G84U U102C C105G G126U]", "polymerase ribozyme fitness (log ratio)": "≤ -4.2"},
      {"variant": "GGAUCUUCUCGAUCUAACUAAAUAGACAAAUCUGCCACAAAGCUUGAGAGCAUCUUCGGAUGCAUAGGCGGCAGCCUUCGGUGGCGCGAUAGCGCCAACGUUCUCAACCAUGACACGCAAAACGCGUGCUCCGUUGAAUGGAAUUUAUCAUG", "note": "[A19U A23U G65U U109C G143A]", "polymerase ribozyme fitness (log ratio)": "≤ -4.2"},
      {"variant": "GGAUCUUCUCGAUCUAACUAAAACGACAUAUCUGCCACAAAGCUUGAGAGCAUCUUAGGAUGCAGAGGCGGCAGCCUUCGGUGGCACGAUAGCGCCACCGUUCUCAACUAUGAGACGCAAAACGCGUGCUCUGUUAAAUGGAGUUUAUCAUG", "note": "[A19U A24C A29U C57A G86A A98C C114G C132U G136A]", "polymerase ribozyme fitness (log ratio)": "≤ -4.2"},
      {"variant": "GGAUCUUCUCGAUCUAACUAAAAGGACAAAUCUGACACAAAGUUUGAGAGCAUCUACGGAAGCAGAGGCGGCAGCCUUCGGUGGCGCGCUAGCGCCAACGUUCUCAACACUGACACGCAAAACGCGUGCUCCGUUGAAUAGAGUUUAUCAUG", "note": "[A19U A24G C35A C43U U56A U61A A89C U109A A110C G140A]", "polymerase ribozyme fitness (log ratio)": "≤ -4.2"}
    ]}
  ]
}
